Experimental data from the supplement of paper PMC11417369.
The other results are listed elsewhere or left out.

system: PfAP2-HC AP2 domain (GST-tagged); experiment: gcPBM binding intensity (ln(normalized median fluorescence intensity)); higher = stronger DNA binding
Outline: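 Plasmodium falciparum DNA-binding domains carrying a GST tag were expressed in E. coli and applied for 1 h, at about 25 μg on average, to an Agilent 4 × 180k array. The array held primer-extended double-stranded 36-bp intergenic genomic probes together with negative controls, and binding took place in 1× PBS with 1% milk, 0.2 mg/ml BSA, 0.5% salmon testes DNA and 0.03% Triton X-100. An Alexa488 anti-GST antibody detected bound protein, and the array was scanned at 488 nm. Binding intensity is taken as the highest Masliner-normalised natural-log median intensity across replicate spots of either probe orientation.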

Row | Sequence | gcPBM binding intensity (ln)
1 | TATTTCACACAGTATATATATATATATATATATATA [TGCATGCA_negctrl_site118] | 9.81
2 | AAGGGAAAAAAAAAAGCACACATACGTAAATATATA [CACACA_site7960] | 9.74
3 | GTTAATTTTTGTATAGTGCAAAAATATAATAGTATG | 9.63
4 | TGTTGGTATGTGAATGCATGCATATAAGTCTATCTG [TGCATGCA_site780] | 9.64
5 | TTGAAGTATAATAAAGTGCAAAATTATAATGATCTT [GTGCAC_site9639] | 9.78
6 | ATCTGACAAAAGTGTACACATATATATATATATATA [CACACA_site4814] | 9.72
7 | AAATGGGAAATTTCATGTACTCATTTACCCTTATTA [XGTACX_site4740] | 9.52
8 | CACATAATGAAAAATACACACATGTATATTTATAAA [CACACA_site2736] | 9.79
9 | CTTTCATATGTTTTAACACACACGCATATATTATAG [CACACA_site7033] | 10
10 | ATATAAGTTATTTTATACAAAAAAAAAAAAAAAAAT [CACACA_negctrl_site1190] | 9.68
11 | AAGAATGTTAACGTTGCACACAAAAAAAAAGTATAC [CACACA_site8763] | 9.93
12 | AAAAAAAAAAAAAATACACACACATATATATATATA [CACACA_site8698] | 9.93
13 | TATTTATGCACGCGTGCACACACATATGAAAAAAGG [CACACA_site9090] | 9.87
14 | AATTGCTAATGGTACGAACACACATATAAAGATGCA [CACACA_site8634] | 9.77
15 | AGTATACACAGACACACACACACATATATATATATA [CACACA_site8510] | 10.9
16 | TTTTTATGGACTATGGTGCATTATATATAAATGAAA [GTGCAC_site9557] | 9.3
17 | TAATATTATATAAATTGTACTATTTTTTCCTTATTC [XGTACX_site5314] | 9.55
18 | GTAAACAATTATGAACGTACATAAAATAAATGAACA [XGTACX_site7159] | 9.87
19 | TGTCTTTTTAAGTTTTGTACATAAATATATTTCAAA [XGTACX_site427] | 9.6
20 | TTTTCATTTTTCTTTACACACATATATATATATATA [CACACA_site2236] | 10
21 | TATATATATATTTTTTGTACATATTATATAATATAC [XGTACX_site5187] | 9.64
22 | GAAAGACAAATTGTGACACACACAAAAAAAAAAAAA [CACACA_site9241] | 10.2

Row | Sequence | gcPBM binding intensity (ln)
23 | AAAAAAAAAAAAAAAAAAAAACACCCAAAAAAATAT [XGTACX_negctrl_site210] | 10.1
24 | ATATCAAATTCTGAAACACACAAAATTACACCTCTA [CACACA_site169] | 9.88
25 | TTTTCGATATGCTTTTTTTTTCTACTGTCTTTTTAA [TGCATGCA_negctrl_site54] | 9.61
26 | CAAAAATATTATTATAGTACATAAATAATATATTTT [XGTACX_site6902] | 9.52
27 | TAAAAATAGGAGTGTGTGCACATAAATTATATACTA [GTGCAC_site9405] | 10.2
28 | TTACTTAATAGACACACACACAAAAAAAAAAAAAAA [CACACA_site6572] | 10.1
29 | CACATACATAAATACACACACAAAATAATAAAATAA [CACACA_site5304] | 10.2
30 | AAACAATAAAAGATTACACACATATATAGCATATAT [CACACA_site1698] | 10.1
31 | TATACATAATATATATGTACATATATTCTTTATTTT [XGTACX_site4565] | 9.77
32 | TCAAATAATTTGTTGACACACACACCCACATACATA [CACACA_site8717] | 10.6
33 | ATATTTTTTACTATTACACACAAGGGATTATTATTT [CACACA_site3915] | 9.93
34 | ACCTTATAAAAAAAAAGTACATATATAAATAATAAA [XGTACX_site4338] | 9.58
35 | ATAATATATTTATGTTGTACAAGGAAAATTTTGAAA [XGTACX_site3472] | 9.63
36 | GAAATGGAAAAATATACATGCGCATATAAATTAATA [TGCATGCA_site834] | 9.78
37 | TGGAGGATAGTTCACAGTACCCAGAAACTCTACGGA [XGTACX_site2560] | 9.38
38 | AACCATAAATAATTATGTACTAAAAAAAATATATAT [XGTACX_site3415] | 9.64
39 | TTATTTATGATATATACACACTAACATTATTTATCC [CACACA_site6720] | 9.92
40 | TCTTATATATGCTTAAATATATTATATTTATTTGAA [CACACA_negctrl_site1757] | 9.55
41 | ATCATATGTATGCATACACACAAAAAATTATATATA [CACACA_site398] | 9.82
42 | TATAATGATATAACAACACACATGTATGTATTATTA [CACACA_site230] | 9.98
43 | TTTTTAATATATAAAGATAATAATAAATAAAATTCA [CACACA_negctrl_site657] | 9.39
44 | TATAGATACCTATACACACACACACGGACATATATA [CACACA_site7585] | 10.8
